Assay results as given in patent US20230278972A1, “SUBSTITUTED HALOALKYL SULFONANILIDE HERBICIDES” (FMC Corporation, priority 2020, published 2023).

Assays:
Settings in all cases: Flood, 250 g ai/ha; visual rating after 13 to 15 days; scale of 0 to 100 where 0 is no effect and 100 is complete control
[1] = system: rice (Oryza sativa); test: Test B flooded paddy test, rice
[2] = system: ducksalad (Heteranthera limosa); test: Test B flooded paddy test, ducksalad
[3] = system: barnyardgrass (Echinochloa crus-galli); test: Test B flooded paddy test, barnyardgrass
[4] = system: sedge, umbrella (small-flower umbrella sedge, Cyperus difformis); test: Test B flooded paddy test, sedge, umbrella

Cc1cc(Cl)c(NS(=O)(=O)C(F)(F)F)cc1C1=NOC2(CCCC2)C1 [Compound 204]
Plant response rating, Rice [1]: 0
Plant response rating, Ducksalad [2]: 0
Plant response rating, Barnyardgrass [3]: 0
Plant response rating, Sedge, Umbrella [4]: 0

Cc1cc(C)c(C(=O)N2CCCC(F)C2)cc1NS(=O)(=O)C(F)(F)F (centres unmarked) [Compound 155]
Plant response rating, Rice [1]: 75
Plant response rating, Ducksalad [2]: 75
Plant response rating, Barnyardgrass [3]: 90
Plant response rating, Sedge, Umbrella [4]: 85

C#CCN(C)C(=O)c1cc(N(S(=O)(=O)C(F)(F)F)S(=O)(=O)C(F)(F)F)c(C)c(F)c1C [Compound 147]
Plant response rating, Rice [1]: 0
Plant response rating, Ducksalad [2]: 65
Plant response rating, Barnyardgrass [3]: 0
Plant response rating, Sedge, Umbrella [4]: 80

COC1CCCN(C(=O)c2cc(N(C(C)=O)S(=O)(=O)C(F)(F)F)c(C)cc2C)C1 (centres unmarked) [Compound 93]
Plant response rating, Rice [1]: 0
Plant response rating, Ducksalad [2]: 50
Plant response rating, Barnyardgrass [3]: 25
Plant response rating, Sedge, Umbrella [4]: 70

Cc1cc(C)c(C(=O)N2CCCOCC2)cc1NS(=O)(=O)C(F)(F)F [Compound 160]
Plant response rating, Rice [1]: 0
Plant response rating, Ducksalad [2]: 45
Plant response rating, Barnyardgrass [3]: 0
Plant response rating, Sedge, Umbrella [4]: 75

CCC1(CC)CC(c2cc(NS(=O)(=O)C(F)(F)F)c(C)cc2C)=NO1 [Compound 209]
Plant response rating, Rice [1]: 0
Plant response rating, Ducksalad [2]: 85
Plant response rating, Barnyardgrass [3]: 10
Plant response rating, Sedge, Umbrella [4]: 95

Cc1cc(C)c(N(S(C)(=O)=O)S(=O)(=O)C(F)(F)F)cc1-c1cc(Cl)nn(C)c1=O [Compound 46]
Plant response rating, Rice [1]: 0
Plant response rating, Ducksalad [2]: 50
Plant response rating, Barnyardgrass [3]: 0
Plant response rating, Sedge, Umbrella [4]: 90

CC(=O)OCN(c1cc(C2=NO[C@@H]3CCC[C@H]23)c(C)cc1C)S(=O)(=O)C(F)(F)F (relative stereo) [Compound 102]
Plant response rating, Rice [1]: 35
Plant response rating, Ducksalad [2]: 85
Plant response rating, Barnyardgrass [3]: 90
Plant response rating, Sedge, Umbrella [4]: 80

Cc1cc(C#N)c(C(=O)N2CCCCC2)cc1NS(=O)(=O)C(F)(F)F [Compound 126]
Plant response rating, Rice [1]: 0
Plant response rating, Ducksalad [2]: 45
Plant response rating, Barnyardgrass [3]: 0
Plant response rating, Sedge, Umbrella [4]: 80

Cc1cc(C)c(N(S(=O)(=O)C(F)(F)F)S(=O)(=O)C(F)(F)F)cc1C(=O)N(C)CC1CC1 [Compound 169]
Plant response rating, Rice [1]: 0
Plant response rating, Ducksalad [2]: 0
Plant response rating, Barnyardgrass [3]: 0
Plant response rating, Sedge, Umbrella [4]: 80

Cc1cc(C)c(N(S(=O)(=O)C(F)(F)F)S(=O)(=O)C(F)(F)F)cc1C1=NOC2(CCOCC2)C1 [Compound 178]
Plant response rating, Rice [1]: 0
Plant response rating, Ducksalad [2]: 20
Plant response rating, Barnyardgrass [3]: 0
Plant response rating, Sedge, Umbrella [4]: 90

CCn1nccc(-c2cc(NS(=O)(=O)C(F)(F)F)c(C)cc2F)c1=O [Compound 55]
Plant response rating, Rice [1]: 0
Plant response rating, Ducksalad [2]: 45
Plant response rating, Barnyardgrass [3]: 0
Plant response rating, Sedge, Umbrella [4]: 80

Cc1ccc(-c2ccnn(C)c2=O)cc1N(S(=O)(=O)C(F)(F)F)S(=O)(=O)C(F)(F)F [Compound 66]
Plant response rating, Rice [1]: 20
Plant response rating, Ducksalad [2]: 20
Plant response rating, Barnyardgrass [3]: 35
Plant response rating, Sedge, Umbrella [4]: 90

Cc1cc(Cl)c(N(S(=O)(=O)C(F)(F)F)S(=O)(=O)C(F)(F)F)cc1C1=NOC(C)(C)C1 [Compound 222]
Plant response rating, Rice [1]: 15
Plant response rating, Ducksalad [2]: 70
Plant response rating, Barnyardgrass [3]: 20
Plant response rating, Sedge, Umbrella [4]: 95

O=C(c1ccc(Cl)c(NS(=O)(=O)C(F)(F)F)c1)N1CCOCC1 [Compound 15]
Plant response rating, Rice [1]: 0
Plant response rating, Ducksalad [2]: 0
Plant response rating, Barnyardgrass [3]: 0
Plant response rating, Sedge, Umbrella [4]: 0

Cc1cc(C)c(N(S(=O)(=O)C(F)(F)F)S(=O)(=O)C(F)(F)F)cc1N1CC2(CCCCC2)OC1=O [Compound 269]
Plant response rating, Rice [1]: 0
Plant response rating, Ducksalad [2]: 85
Plant response rating, Barnyardgrass [3]: 0
Plant response rating, Sedge, Umbrella [4]: 95

Cc1cc(C)c(C2=NOC(C(C)(C)C)C2)cc1NS(=O)(=O)C(F)(F)F (centres unmarked) [Compound 108]
Plant response rating, Rice [1]: 20
Plant response rating, Ducksalad [2]: 65
Plant response rating, Barnyardgrass [3]: 35
Plant response rating, Sedge, Umbrella [4]: 75

Cc1cc(Cl)c(C(=O)N2CCOCC2)cc1NS(=O)(=O)C(F)(F)F [Compound 248]
Plant response rating, Rice [1]: 0
Plant response rating, Ducksalad [2]: 40
Plant response rating, Barnyardgrass [3]: 0
Plant response rating, Sedge, Umbrella [4]: 90

Cc1cc(Cl)c(C2=NOC(C)(C)C2)cc1N(S(=O)(=O)C(F)(F)F)S(=O)(=O)C(F)(F)F [Compound 184]
Plant response rating, Rice [1]: 0
Plant response rating, Ducksalad [2]: 25
Plant response rating, Barnyardgrass [3]: 25
Plant response rating, Sedge, Umbrella [4]: 45

CCn1nc(Cl)cc(-c2cc(N(S(C)(=O)=O)S(=O)(=O)C(F)(F)F)c(C)cc2C)c1=O [Compound 45]
Plant response rating, Rice [1]: 0
Plant response rating, Ducksalad [2]: 25
Plant response rating, Barnyardgrass [3]: 10
Plant response rating, Sedge, Umbrella [4]: 90

C#CCN(C)C(=O)c1cc(NS(=O)(=O)C(F)(F)F)c(C)c(F)c1C [Compound 179]
Plant response rating, Rice [1]: 0
Plant response rating, Ducksalad [2]: 60
Plant response rating, Barnyardgrass [3]: 0
Plant response rating, Sedge, Umbrella [4]: 60

Cc1cc(C)c(C2=NOC3(CCCCCC3)C2)cc1NS(=O)(=O)C(F)(F)F [Compound 277]
Plant response rating, Rice [1]: 25
Plant response rating, Ducksalad [2]: 45
Plant response rating, Barnyardgrass [3]: 25
Plant response rating, Sedge, Umbrella [4]: 90

Cc1cc(Cl)c(NS(=O)(=O)C(F)(F)F)cc1C(=O)N1CCOCC1(C)C [Compound 153]
Plant response rating, Rice [1]: 25
Plant response rating, Ducksalad [2]: 70
Plant response rating, Barnyardgrass [3]: 15
Plant response rating, Sedge, Umbrella [4]: 65

Cc1cc(C)c(N(S(=O)(=O)C(F)(F)F)S(=O)(=O)C(F)(F)F)cc1-c1cc(C(F)(F)F)nn(C)c1=O [Compound 61]
Plant response rating, Rice [1]: 0
Plant response rating, Ducksalad [2]: 0
Plant response rating, Barnyardgrass [3]: 0
Plant response rating, Sedge, Umbrella [4]: 0

COc1cnn(-c2cc(NS(=O)(=O)C(F)(F)F)c(C)cc2C)c(=O)c1 [Compound 54]
Plant response rating, Rice [1]: 0
Plant response rating, Ducksalad [2]: 0
Plant response rating, Barnyardgrass [3]: 0
Plant response rating, Sedge, Umbrella [4]: 0

Cc1cc(Cl)c(N(S(=O)(=O)C(F)(F)F)S(=O)(=O)C(F)(F)F)cc1-c1cn(C)c(=O)n(C)c1=O [Compound 38]
Plant response rating, Rice [1]: 25
Plant response rating, Ducksalad [2]: 70
Plant response rating, Barnyardgrass [3]: 0
Plant response rating, Sedge, Umbrella [4]: 75

Cc1cc(C(F)(F)F)c(NS(=O)(=O)C(F)(F)F)cc1C(=O)N1CCCCC1 [Compound 165]
Plant response rating, Rice [1]: 30
Plant response rating, Ducksalad [2]: 75
Plant response rating, Barnyardgrass [3]: 20
Plant response rating, Sedge, Umbrella [4]: 95

Cc1cc(C(F)(F)F)c(C(=O)N(C)C)cc1NS(=O)(=O)C(F)(F)F [Compound 133]
Plant response rating, Rice [1]: 45
Plant response rating, Ducksalad [2]: 35
Plant response rating, Barnyardgrass [3]: 15
Plant response rating, Sedge, Umbrella [4]: 95

CCn1cc(-c2cc(N(S(=O)(=O)C(F)(F)F)S(=O)(=O)C(F)(F)F)c(C)cc2C)c(=O)n(CC)c1=O [Compound 43]
Plant response rating, Rice [1]: 20
Plant response rating, Ducksalad [2]: 25
Plant response rating, Barnyardgrass [3]: 20
Plant response rating, Sedge, Umbrella [4]: 25

Cc1cc(Cl)c(NS(=O)(=O)C(F)(F)F)cc1C(=O)N(C)C [Compound 23]
Plant response rating, Rice [1]: 15
Plant response rating, Ducksalad [2]: 90
Plant response rating, Barnyardgrass [3]: 10
Plant response rating, Sedge, Umbrella [4]: 95

Cc1cc(F)c(C(=O)N2CCCCC2)cc1NS(=O)(=O)C(F)(F)F [Compound 211]
Plant response rating, Rice [1]: 10
Plant response rating, Ducksalad [2]: 80
Plant response rating, Barnyardgrass [3]: 15
Plant response rating, Sedge, Umbrella [4]: 75

Cc1cc(C)c(N(COC(=O)C2CCCCC2)S(=O)(=O)C(F)(F)F)cc1C1=NOC2(CCCC2)C1 [Compound 148]
Plant response rating, Rice [1]: 0
Plant response rating, Ducksalad [2]: 0
Plant response rating, Barnyardgrass [3]: 0
Plant response rating, Sedge, Umbrella [4]: 0

COC1CCN(C(=O)c2cc(NS(=O)(=O)C(F)(F)F)c(C)cc2C)CC1 [Compound 19]
Plant response rating, Rice [1]: 10
Plant response rating, Ducksalad [2]: 85
Plant response rating, Barnyardgrass [3]: 25
Plant response rating, Sedge, Umbrella [4]: 95

Cc1cc(C)c(C(=O)N2CCSCC2)cc1NS(=O)(=O)C(F)(F)F [Compound 12]
Plant response rating, Rice [1]: 0
Plant response rating, Ducksalad [2]: 0
Plant response rating, Barnyardgrass [3]: 0
Plant response rating, Sedge, Umbrella [4]: 0

Cc1cc(F)c(C(=O)N2CCC(C#N)CC2)cc1N(S(=O)(=O)C(F)(F)F)S(=O)(=O)C(F)(F)F [Compound 239]
Plant response rating, Rice [1]: 0
Plant response rating, Ducksalad [2]: 0
Plant response rating, Barnyardgrass [3]: 0
Plant response rating, Sedge, Umbrella [4]: 0

Cc1cc(C)c(N(COC(=O)c2ccccc2)S(=O)(=O)C(F)(F)F)cc1C1=NOC2(CCCC2)C1 [Compound 149]
Plant response rating, Rice [1]: 0
Plant response rating, Ducksalad [2]: 25
Plant response rating, Barnyardgrass [3]: 95
Plant response rating, Sedge, Umbrella [4]: 65

Cc1cc(C)c(-c2ccnn(C)c2=O)cc1NS(=O)(=O)C(F)(F)F [Compound 80]
Plant response rating, Rice [1]: 55
Plant response rating, Ducksalad [2]: 40
Plant response rating, Barnyardgrass [3]: 70
Plant response rating, Sedge, Umbrella [4]: 95

Cc1c(NS(=O)(=O)C(F)(F)F)cc(C(=O)N2CCCCC2)c(C)c1F [Compound 191]
Plant response rating, Rice [1]: 0
Plant response rating, Ducksalad [2]: 75
Plant response rating, Barnyardgrass [3]: 0
Plant response rating, Sedge, Umbrella [4]: 75
